Measured values reported in PubChem BioAssay AID1508642 (National Center for Advancing Translational Sciences (NCATS), 2021).
About 200 (0.47%) of roughly 43,000 compounds were called active. Inconclusive means that the source gave no clear call. Such entries were picked first, then a sample of the others. Calls follow the shape of the dose curve; as a rule, active = well fitted cell-killing curve with a large enough effect; inconclusive = small, poorly fitted or top-dose-only effect, or effect the other way; inactive = flat fitted curve, though single readings scatter. A potency beside an inconclusive call is a rough fit, not a confirmed value.

assay: Cell viability qHTS assay in S16 Pmp22-F2sN cells; settings: S16 Pmp22-F2sN Schwann cells (luciferase reporters placed in the Pmp22 gene) viability, CellTiter-Glo, 24 h; series mostly up to 57.5 µM; also: nearly all actives have a fitted effect of over 65% in size
Method in brief: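 Rat S16 Schwann reporter line, 24 h treatment with library compounds delivered at 23 nL per well. Cell viability by CellTiter-Glo luminescence.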
Potency is read from the fitted curve at half-maximal effect; tags tell the direction and shape of the fitted curve.

**Q.** Which Potency does the source give for `O=C(C1CCCN(S(=O)(=O)c2ccc(Br)s2)C1)N1CCN(c2ccc(F)cc2)CC1` (centres undefined) here?
**A.** Its Potency is inconclusive: 25.1 µM [cytotoxic, partial curve].

**Q.** For `Cc1cccc(NC(=O)c2sc3nc4c(cc3c2N)CN(Cc2ccccc2)CC4)c1`, which Potency is on record?
**A.** The Potency was inconclusive: 39.8 µM [cytotoxic, single point].

**Q.** Which Potency does the source give for `COc1ccccc1NC(=O)c1oc2ccccc2c1NC(=O)c1ccccc1C(F)(F)F` here?
**A.** Its Potency is inconclusive: 2.51 µM [cytotoxic, full curve].

**Q.** With `COc1ccc(OCC(=O)Nc2ccc(O)c(-c3nc4ccccc4s3)c2)cc1` as the compound, how does the Potency read?
**A.** Its Potency is inconclusive: 31.6 µM [cytotoxic, single point].

**Q.** With `Cc1ccc(CNC(=O)c2nc(-c3ccc(Cl)cc3)n3c2CCCCC3)cc1` as the compound, how does the Potency read?
**A.** Its Potency is inconclusive: 25.1 µM [cytotoxic, single point].

**Q.** With `CCCCNc1nc(Oc2ccc(OCCC)nn2)nc(N(C)C)n1` as the compound, how does the Potency read?
**A.** The Potency was inconclusive: 25.1 µM [cytotoxic, partial curve, poor fit].

**Q.** With `CCOc1ccccc1NC(=O)c1sc2nc(-c3ccc(OC)cc3)ccc2c1N` as the compound, how does the Potency read?
**A.** The Potency was inconclusive: 28.2 µM [cytotoxic, partial curve].

**Q.** Which Potency does the source give for `Cc1nnc(SCc2nc(-c3ccc(Cl)cc3)no2)n1-c1ccc(F)cc1` here?
**A.** Its Potency is inconclusive: 22.4 µM [cytotoxic, single point].

**Q.** For `O=c1cc(-c2ccccc2)nc2cc(-c3ccc(F)cc3)[nH]n12`, which Potency is on record?
**A.** Its Potency is active: 25.1 µM.

**Q.** For `Cc1ccc(Cn2cc(/C=C(/C#N)C(=O)Nc3cccc(Cl)c3)c3ccccc32)cc1`, which Potency is on record?
**A.** The Potency was inconclusive: 6.31 µM [cytotoxic, partial curve, poor fit].

**Q.** Which Potency does the source give for `COc1cccc(CNC(=O)C(NS(=O)(=O)c2ccc3c(c2)oc(=O)n3C)C(C)C)c1` (centres undefined) here?
**A.** The Potency was “inactive”.

**Q.** Which Potency does the source give for `CC(C)(C)c1ccc(C2NC(=O)c3n[nH]c(-c4cccs4)c32)cc1` (centres undefined) here?
**A.** Its Potency is inconclusive: 28.2 µM [cytotoxic, single point].

**Q.** Which Potency does the source give for `COc1ccc(Cn2c(=O)[nH]c3cc(C(=O)N4CCN(c5cccc(OC)c5)CC4)ccc3c2=O)cc1` here?
**A.** Its Potency is “inactive”.

**Q.** Which Potency does the source give for `Cc1cc(C)cc(NC(=O)N2CCN3CCCCC3C2)c1` (centres undefined) here?
**A.** Its Potency is “inactive”.

**Q.** For `CCn1cc2nc(SCc3ccc(C)cc3)n(CCc3ccccc3)c(=O)c2n1`, which Potency is on record?
**A.** Its Potency is inconclusive: 28.2 µM [rising, single point].

**Q.** Which Potency does the source give for `Cc1ccc(OCC(=O)Nc2ccc(Cl)c(-c3nc4ccccc4[nH]3)c2)cc1C` here?
**A.** Its Potency is “inactive”.

**Q.** For `CCC1CN(C(=O)N2CCC(C(=O)NCCC3=CCCCC3)CC2)c2cc(C)ccc2O1` (centres undefined), which Potency is on record?
**A.** The Potency was inconclusive: 39.8 µM [cytotoxic, partial curve, poor fit].

**Q.** With `CC(C)OCCCN1C(=O)c2[nH]nc(-c3ccccc3O)c2C1c1cccc(OCc2ccccc2)c1` (centres undefined) as the compound, how does the Potency read?
**A.** The Potency was inconclusive: 39.8 µM [cytotoxic, single point].

**Q.** For `Cc1ccc(C(=O)CC2(O)C(=O)N(Cc3ccccc3)c3ccccc32)c(C)c1` (centres undefined), which Potency is on record?
**A.** The Potency was inconclusive: 39.8 µM [cytotoxic, partial curve, poor fit].

**Q.** With `COc1ccc(Cl)cc1NC(=O)Cn1cnc2sc(C)c(S(=O)(=O)N3CCN(c4ccccc4OC)CC3)c2c1=O` as the compound, how does the Potency read?
**A.** Its Potency is inconclusive: 39.8 µM [cytotoxic, partial curve, poor fit].

**Q.** Which Potency does the source give for `COc1ccc(OC)c(Nc2c3c(nc4ccccc24)CCC3)c1` here?
**A.** The Potency was inconclusive: 1 µM [cytotoxic, full curve, poor fit].

**Q.** With `CCc1ccc(NC(=O)c2ccc(F)c(S(=O)(=O)NCCc3ccc(OC)c(OC)c3)c2)cc1` as the compound, how does the Potency read?
**A.** Its Potency is inconclusive: 1.12 µM [cytotoxic, full curve].

**Q.** For `Cc1cccc(C(=O)OCc2cc(=O)n3nc(-c4cccs4)sc3n2)c1`, which Potency is on record?
**A.** Its Potency is inconclusive: 3.55 µM [cytotoxic, full curve, poor fit].

**Q.** For `CCOc1ccc2c(c1)c(=O)c(C(=O)c1ccc(C)cc1)cn2Cc1ccccc1OC`, which Potency is on record?
**A.** The Potency was inconclusive: 39.8 µM [cytotoxic, partial curve, poor fit].

**Q.** With `CCOc1ccccc1NC(=O)CN1C(=O)C2(SCC(=O)N2c2ccc(C)cc2)c2ccccc21` (centres undefined) as the compound, how does the Potency read?
**A.** The Potency was inconclusive: 25.1 µM [cytotoxic, partial curve].

**Q.** With `COc1ccc(C(=O)Nc2nc3n(n2)C(c2ccc(F)cc2)C=C(c2ccc(Cl)cc2)N3)cc1` (centres undefined) as the compound, how does the Potency read?
**A.** The Potency was inconclusive: 39.8 µM [cytotoxic, single point].

**Q.** For `CCc1cccc(NS(=O)(=O)c2cc(-c3cnc(C)o3)ccc2OC)c1`, which Potency is on record?
**A.** The Potency was inconclusive: 12.6 µM [cytotoxic, partial curve].

**Q.** Which Potency does the source give for `CCCCOc1ccccc1C1CC(=O)Nc2cc(OC)c(OC)cc21` (centres undefined) here?
**A.** Its Potency is inconclusive: 12.6 µM [rising, partial curve, poor fit].

**Q.** Which Potency does the source give for `CC(=O)Nc1c(C)nn(-c2ccccc2)c1N1CCC(C(=O)Nc2cccc(C(F)(F)F)c2)CC1` here?
**A.** The Potency was inconclusive: 5.01 µM [cytotoxic, full curve].

**Q.** With `CCc1nnc2c3ccccc3nc(N3CCN(c4cc(C)ccc4C)CC3)n12` as the compound, how does the Potency read?
**A.** The Potency was inconclusive: 31.6 µM [cytotoxic, partial curve, poor fit].

**Q.** With `Cc1ccc(S(=O)(=O)c2nnn3c2nc(N2CCC(C(N)=O)CC2)c2cc(Cl)ccc23)cc1C` as the compound, how does the Potency read?
**A.** Its Potency is inconclusive: 20 µM [cytotoxic, partial curve, poor fit].

**Q.** For `COCCN1C(=O)c2[nH]nc(-c3c(C)cc(C)cc3O)c2C1c1cccc(O)c1` (centres undefined), which Potency is on record?
**A.** Its Potency is inconclusive: 39.8 µM [cytotoxic, single point].

**Q.** Which Potency does the source give for `Cc1ccc(-c2nnc(Nc3ccc(Br)cc3)c3ccccc23)cc1S(=O)(=O)NCc1nc2ccccc2[nH]1` here?
**A.** The Potency was inconclusive: 28.2 µM [cytotoxic, single point].

**Q.** With `CCOc1ccccc1NC(=O)c1c(NCc2ccc(OC)c(OC)c2OC)sc2c1CCC(C)C2` (centres undefined) as the compound, how does the Potency read?
**A.** The Potency was inconclusive: 28.2 µM [cytotoxic, partial curve, poor fit].

**Q.** With `CCN(CC)CCN(C(=O)c1ccc(C(=O)OC)cc1)c1nc2ccc(Cl)cc2s1` as the compound, how does the Potency read?
**A.** Its Potency is “inactive”.

**Q.** With `CC(C)c1ccc(S(=O)(=O)Nc2ccc(O)c(Sc3nc4ccccc4s3)c2)cc1` as the compound, how does the Potency read?
**A.** Its Potency is inconclusive: 39.8 µM [cytotoxic, partial curve, poor fit].

**Q.** Which Potency does the source give for `COCCn1c(SCC(=O)c2ccccc2)nc2cc(C(=O)NC3CCCC3)ccc2c1=O` here?
**A.** Its Potency is inconclusive: 2.24 µM [rising, full curve, poor fit].

**Q.** Which Potency does the source give for `CCc1ccc2nc(N(Cc3cccnc3)C(=O)c3cccs3)sc2c1` here?
**A.** The Potency was inconclusive: 39.8 µM [cytotoxic, single point].

**Q.** Which Potency does the source give for `CC(=O)c1cccc(NC(=O)c2noc3c2CC(C)CC3)c1` (centres undefined) here?
**A.** Its Potency is “inactive”.

**Q.** With `Cc1cc(-c2ccc(C)c(S(=O)(=O)N(Cc3cccs3)C(C)C)c2)on1` as the compound, how does the Potency read?
**A.** Its Potency is inconclusive: 22.4 µM [cytotoxic, partial curve, poor fit].

**Q.** For `CN(C)CCNC(=O)c1ccc2nc(CCc3ccccc3)oc2c1`, which Potency is on record?
**A.** Its Potency is inconclusive: 39.8 µM [cytotoxic, partial curve, poor fit].

**Q.** Which Potency does the source give for `CCOC(=O)c1ccc(NC(=O)c2cnc(N3CCCC3)nc2C)cc1` here?
**A.** Its Potency is “inactive”.

**Q.** For `COc1ccc(-n2c(=O)c3sc4ccccc4c3n(CC(=O)N3CCCC3)c2=O)cc1`, which Potency is on record?
**A.** The Potency was “inactive”.

**Q.** Which Potency does the source give for `Cc1nc(-c2ccc(C)c(N3CCN(C(=O)Nc4ccc(Br)cc4)CC3)c2)no1` here?
**A.** Its Potency is inconclusive: 28.2 µM [cytotoxic, single point].

**Q.** Which Potency does the source give for `Cc1ccc2oc(-c3ccc(C)c(NC(=O)C(C)(C)Oc4ccc(Cl)cc4)c3)nc2c1` here?
**A.** Its Potency is “inactive”.

**Q.** For `CC(=O)c1ccc(NS(=O)(=O)c2c(C)nc3scc(C)n3c2=O)cc1`, which Potency is on record?
**A.** The Potency was inconclusive: 39.8 µM [cytotoxic, single point].

**Q.** With `Cc1cccc(Cn2c(=O)n(Cc3ccccc3)c(=O)c3c2c2cc(C)ccc2n3C)c1` as the compound, how does the Potency read?
**A.** The Potency was inconclusive: 0.562 µM [cytotoxic, full curve, poor fit].

**Q.** For `CCn1cc(C(=O)NCCc2ccc(OC)c(OC)c2)c(=O)c2cc(S(=O)(=O)N3CCCCCC3)ccc21`, which Potency is on record?
**A.** The Potency was inconclusive: 0.316 µM [rising, full curve, poor fit].

**Q.** Which Potency does the source give for `O=C(CCOc1ccccc1)N(Cc1cccnc1)c1nc2ccc(Cl)cc2s1` here?
**A.** The Potency was inconclusive: 39.8 µM [cytotoxic, single point].

**Q.** With `COc1ccc(OC)c(NC(=O)CN2C(=O)CC(C)Sc3ccccc32)c1` (centres undefined) as the compound, how does the Potency read?
**A.** The Potency was inconclusive: 17.8 µM [rising, partial curve, poor fit].

**Q.** For `CCOC(=O)c1ccc(NC(=O)CSc2nc3cc4ccccc4cc3[nH]2)cc1`, which Potency is on record?
**A.** The Potency was inconclusive: 10 µM [cytotoxic, partial curve].

**Q.** With `Cc1cccc2c1N(Cc1ccccc1OCCC(C)C)C(=O)C2=O` as the compound, how does the Potency read?
**A.** The Potency was inconclusive: 39.8 µM [cytotoxic, single point].

**Q.** Which Potency does the source give for `CC(=O)c1ccc(NC(=O)c2cc(C)nc3c2c(C)nn3-c2ccc(C)cc2)cc1` here?
**A.** Its Potency is inconclusive: 31.6 µM [cytotoxic, partial curve, poor fit].

**Q.** Which Potency does the source give for `COc1ccccc1NC(=O)c1c(NCc2ccc(C)o2)sc2c1CCCCC2` here?
**A.** Its Potency is “inactive”.

**Q.** Which Potency does the source give for `CCOC(=O)N1CCc2c(sc3c2C(=O)NC(c2cc(OC)c(OC)c(OC)c2)N3)C1` (centres undefined) here?
**A.** The Potency was inconclusive: 4.47 µM [cytotoxic, full curve, poor fit].

**Q.** For `CCOc1ccccc1CNC(=O)c1ccc2c(c1)N(Cc1ccc(C)cc1)CCS2`, which Potency is on record?
**A.** Its Potency is inconclusive: 39.8 µM [cytotoxic, partial curve, poor fit].

**Q.** Which Potency does the source give for `COc1ccc(Cl)cc1NC(=O)C(C)Sc1nc2c(c(=O)[nH]1)CCCC2` (centres undefined) here?
**A.** The Potency was inconclusive: 20 µM [cytotoxic, partial curve, poor fit].

**Q.** For `O=C(NCCc1ccccc1Cl)C1CCN(c2nc3ccccc3nc2C(F)(F)F)CC1`, which Potency is on record?
**A.** The Potency was inconclusive: 6.31 µM [cytotoxic, partial curve, poor fit].

**Q.** For `COc1ccc(-n2c(-c3ccco3)nc3c(cnn3-c3ccc(Cl)cc3)c2=O)cc1`, which Potency is on record?
**A.** The Potency was “inactive”.
